# According to the supplement of paper PMC11417369:
# ± gives the standard deviation of the averaged measurements. Some of the results follow.
# System: PfAP2-LT AP2 domain (GST-tagged)
# Assay: gcPBM binding intensity (ln(normalized median fluorescence intensity)); higher = stronger DNA binding
# Procedure, shortened: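 Binding intensity is the highest Masliner-normalised natural-log median intensity over replicate spots in either probe orientation. To obtain it, GST-tagged P. falciparum DNA-binding domains made in E. coli were incubated for 1 h on an Agilent 4 × 180k array of primer-extended double-stranded 36-bp intergenic genomic probes plus negative controls. Detection used Alexa488 anti-GST antibody with scanning at 488 nm.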
row,Sequence,gcPBM binding intensity (ln)
1,TTTATTTTAAAATTTACACACAAAAGGATTTATAGA [CACACA_site2338],8.52 ± 0.42
2,AAAATAAAAAGAAATTGTACGTATAATAATATATTT [XGTACX_site7593],8.77 ± 0.45
3,TTTATTCCAGTATTCACACACGAATAACCACATAAC [CACACA_site5104],9.13 ± 0.29
4,CTATACATATTATATAGTACTTTATTATTATGACTA [XGTACX_site1382],8.72 ± 0.36
5,ATAATTCTTTATTATAGTACACAAACTTTCAAAACA [XGTACX_site3597],8.41 ± 0.35
6,TGTATTTATAGCAATACACACATAACAATAAATATA [CACACA_site3328],8.95 ± 0.37
7,TATATAAGAGGAAAAAGTACAGAAAAACAAAGAGAA [XGTACX_site2926],9 ± 0.49
8,AATATCTAAAATGTGTGTACATAATATTTTTAATAT [XGTACX_site3831],8.89 ± 0.45
9,GTGGTTATATATTAAGTGCATATTATAATTTTAAAC,8.74 ± 0.32
10,ATAGATAAAAAATTATTTATTTAGAATTTTTATGTA [CACACA_negctrl_site400],8.14 ± 0.52
11,TGTATAAATAAATGCGTACACACTAATAAAAAAAAA [CACACA_site858],9.09 ± 0.49
12,CAACTTTTTGAAAATTGTACATGACATATATATATA [XGTACX_site260],8.75 ± 0.37
13,TTATGTAAATAATTTTGTACTTAAATTATTATATAA [XGTACX_site1491],8.26 ± 0.6
14,AAAAAAAATATGATGAGTACACAATAATACATGCAA [XGTACX_site6999],9.07 ± 0.38
15,TGATATTTTATTATTAAAATATATACATATATATAT [CACACA_negctrl_site1456],8.68 ± 0.49
16,ATAAAAATAAAATGGACACACATATATACCTATTTG [CACACA_site5761],9 ± 0.4
17,AAGAAAAAAAAAAAAAAAGATACTTTTTTAAAACTA [TGCATGCA_negctrl_site13],8.22 ± 0.55
18,TTATATTTTTACAAGAGTACATATATATATATATAT [XGTACX_site5383],9.27 ± 0.19
19,GTGCAATATTTATTTTGTACATATTTATCAATAAAC [XGTACX_site8297],8.62 ± 0.42

row,Sequence,gcPBM binding intensity (ln)
1,ACATCGATTTATATTCTGCACTGAAGAAACTACAAC [GTGCAC_site9967],8.81 ± 0.4
2,TCAAACCAGTTGATGTGTACACATATAGTAATAATT [XGTACX_site6014],9.15 ± 0.53
3,TTTATTTGATGAACATGTACAAAAAAACAAAGAACA [XGTACX_site823],8.78 ± 0.49
4,ATTAAATATATTAAATGTACATAATATATATATATA [XGTACX_site5032],8.89 ± 0.39
5,TATTTATACATAGGTGGTACTACTTTAAACAAAAAA [XGTACX_site5062],8.48 ± 0.37
6,TATATGGAGAGATATGCACACTGTATGAATGCCCCC [CACACA_site8853],9.56 ± 0.3
7,AAATAAATAATATTCACACATAAAAAAAATGGAGTT [CACACA_site4525],8.84 ± 0.45
8,TATTTACACAAAATAAAATATATTATATATATATAT [TGCATGCA_negctrl_site381],8.69 ± 0.23
9,TTGCACAGATTAATCAAAAATTTTAAACCAAATATA [XGTACX_negctrl_site38],8.43 ± 0.49
10,AGAATAGAATAAAAAACACACATTTACAACATTATT [CACACA_site3894],9.04 ± 0.45
11,GTATTTAGATGATTAACACACATATGTGTATTAATA [CACACA_site6733],8.88 ± 0.33
12,ATATATTCACGTTAATGTACACATAATAAATTATAT [XGTACX_site5481],8.8 ± 0.35
13,ATATATATTATTGAATGTACATAATTATTTAATAGT [XGTACX_site4971],8.76 ± 0.47
14,AATTATATTGGTTGTAGTACTAAAAGTAAGTTAATG [XGTACX_site33],8.87 ± 0.45
15,TATTCACTGATATGTTGTACATAAAAAAAATTAAAT [XGTACX_site6128],8.57 ± 0.43
16,CACGCACGCACATACACACACATACACATATAAATA [CACACA_site6907],9.72 ± 0.45
17,ATGTTGTTCATAAATATATTATTTTTAAATGTACAA [GTGCAC_negctrl_site507],8.4 ± 0.34
18,CATACACCCCAACACACACACACACCCATATATAAT [CACACA_site8097],10.3 ± 0.37
19,AAAAAAAAAAAAAAAAGTACATATATTATATATATA [XGTACX_site2983],8.48 ± 0.56

row,Sequence,gcPBM binding intensity (ln)
1,TGAAAAAAGAAAAATACACACATATAATATAATATA [CACACA_site2255],9.02 ± 0.49
2,TTTTTTATATTGATATTTATTAAATATGAAATGTTA [GTGCAC_negctrl_site405],8.1 ± 0.45
3,TTATATAAGATATTTCGTACACATTCAAAAATTATG [XGTACX_site7375],8.45 ± 0.4
4,AATAAAATATAAGGGGGTACGGAGAAAGGATACTAT [XGTACX_site7733],9.05 ± 0.54
5,AAAAAAAAAATACAACAAAGTTAAATAAATAAATAA [GTGCAC_negctrl_site402],8.6 ± 0.56
6,AAATAAAAGGTTGAGAGTACATTTTTGTGTATGTAT [XGTACX_site5547],8.8 ± 0.46
7,ATATTTAAAAATATAGTGCAATTATTCTAATGTGTT,8.59 ± 0.42
8,ATATTTCATTAATGAACACACAAAGAGGTATATAAA [CACACA_site1519],8.91 ± 0.41
9,AGCTCTCAAAATTATTCACACGTGTCCTGTTATATA [CACACA_site5415],9.66 ± 0.35
10,TTTTTTCTTTTATGTGAAATGTAATATTGTTATATA [GTGCAC_negctrl_site715],8.51 ± 0.52
11,TGTTTATTTAATAATATTTTTTTTTTTATTATATTA [XGTACX_negctrl_site56],8.31 ± 0.54
12,AGGTGATTGATATATACACACATACCTATATTTATA [CACACA_site7348],9.07 ± 0.35
13,TTATTAAAATATTCTAGTACATATAAAAGGAGAACA [XGTACX_site4374],8.61 ± 0.28
14,GTGCTTATTTATACATGTACAAATGATAAGTTTGTA [XGTACX_site169],8.87 ± 0.38
15,TAAATATATTCATAAAGTACAAAGCAAAATTGTCTA [XGTACX_site7274],8.69 ± 0.45
16,GAAATAAATATATATGCATGTACTTTAATATTATTA [TGCATGCA_site904],8.96 ± 0.75
17,ATATAAAGAAAAGGAACACACAAATATATATATATA [CACACA_site463],9.56 ± 0.25
18,ATATATTATTTTAAATGTACTCATAATAGAAATGTC [XGTACX_site40],8.49 ± 0.41
